# Measured values from PubChem BioAssay AID1460 (National Center for Advancing Translational Sciences (NCATS), 2008).
# Out of some 270,000 compounds screened, about 5,800 (2.1%) were called active. The shares of active, inactive and inconclusive entries below differ from those in the screen. Calls come from the whole dose curve; as a rule, active = well fitted inhibition curve with a large enough effect; inconclusive = small, poorly fitted or top-dose-only effect; inactive = flat fitted curve, though single readings scatter. Where the call is inconclusive, the potency comes from a doubtful curve fit.
# Target: Microtubule-associated protein tau (Homo sapiens) (UniProt P10636)
# Assay: qHTS for Inhibitors of Tau Fibril Formation, Thioflavin T Binding; note: nearly all actives have a fitted effect of over 55% in size
# Conditions: recombinant tau K18 P301L, heparin-induced fibrillization, ThT fluorescence; series mostly up to 57.4 µM; activity, negative = inhibition: at the top concentration
# Procedure, shortened: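 Fibril formation assay: tau K18 P301L at 15 uM with trace Alexa 594 label, heparin inducer 20 uM, pH 7 sodium acetate buffer, 37 C for 6 hr; endpoint ThT signal.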
# % is set by controls: 0 for no effect and ±100 for the full control effect; potency is the fitted concentration of half-maximal effect; tags give direction and shape of the fitted curve.
# Chain of UniProt P10636 (P10636 whole entry, looked up): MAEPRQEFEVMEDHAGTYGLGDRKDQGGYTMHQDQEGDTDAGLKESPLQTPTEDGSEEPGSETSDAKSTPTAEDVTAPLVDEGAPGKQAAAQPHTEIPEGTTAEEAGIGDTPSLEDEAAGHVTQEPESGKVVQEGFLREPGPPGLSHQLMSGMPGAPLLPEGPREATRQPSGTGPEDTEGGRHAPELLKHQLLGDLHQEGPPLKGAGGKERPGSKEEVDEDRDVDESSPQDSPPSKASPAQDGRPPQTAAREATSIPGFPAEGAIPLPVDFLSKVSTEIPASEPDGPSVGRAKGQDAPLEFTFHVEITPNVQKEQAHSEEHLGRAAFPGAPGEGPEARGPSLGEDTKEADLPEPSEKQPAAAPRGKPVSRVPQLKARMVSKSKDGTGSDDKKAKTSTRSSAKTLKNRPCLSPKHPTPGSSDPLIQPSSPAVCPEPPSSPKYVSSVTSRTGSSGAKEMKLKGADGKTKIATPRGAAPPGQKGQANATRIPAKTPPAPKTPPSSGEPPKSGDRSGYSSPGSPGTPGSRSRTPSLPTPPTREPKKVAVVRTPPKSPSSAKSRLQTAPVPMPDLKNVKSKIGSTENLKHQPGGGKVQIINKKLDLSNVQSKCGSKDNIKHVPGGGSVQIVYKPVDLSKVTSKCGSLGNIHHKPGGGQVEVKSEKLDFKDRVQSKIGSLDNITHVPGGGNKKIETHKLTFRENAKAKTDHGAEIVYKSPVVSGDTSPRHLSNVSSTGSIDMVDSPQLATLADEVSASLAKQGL
SMILES,Potency,"activity, negative = inhibition"
Cc1cc(N2CCN(c3nc(-c4ccc([N+](=O)[O-])cc4)cs3)CC2)c2ccccc2n1,"inconclusive: 3.98 µM [inhibitor, full curve]",–
Cc1ccc(C(=O)c2ccc([N+](=O)[O-])cc2)cc1C,"inconclusive: 44.7 µM [inhibitor, single point]",–
CC(=O)[C@H]1[C@@H]2C(=O)N(c3cccc(Cl)c3)C(=O)[C@@H]2[C@H]2c3ccccc3C=CN21,"inconclusive: 28.2 µM [inhibitor, single point]",–
CCCN(CCC)c1ncnc2c1cnn2-c1ccc(OC)cc1,"inconclusive: 20 µM [inhibitor, single point]",–
NC1=NC(=O)S/C1=C\c1ccc(O)cc1,"inconclusive: 14.1 µM [inhibitor, partial curve, poor fit]",–
O=C(c1ccccc1)N1CCN(C2c3cccc4cccc(c34)C2NS(=O)(=O)c2ccccc2)CC1 (centres undefined),–,inactive: -6.99%
O=C(O)/C=C/C(=O)NNc1ccc([N+](=O)[O-])cc1,active: 15.8 µM,–
COc1cccc(N=c2oc3cc(O)ccc3cc2C(=O)NCC2CCCO2)c1 (centres undefined),"inconclusive: 5.01 µM [inhibitor, partial curve]",–
O=C(N/N=C/C=C/c1ccco1)c1cnccn1,–,inactive: 3.12%
COC(=O)c1cc(OC)c(OC)cc1NC(=O)c1ccc2c(c1)CCN2S(=O)(=O)c1ccccc1,–,inactive: -1.21%
CN(CC(=O)Nc1ccc(N2CCOCC2)cc1)Cc1c(O)ccc2ccccc12,"inconclusive: 10 µM [inhibitor, partial curve]",–
O=C(O)c1cccc(Cl)n1,–,inactive: 0.419%
Fc1ccccc1C1=NC(c2ccc(C(F)(F)F)cc2)=Nc2ccccc2N1,–,inactive: 4.53%
CCOC(=O)CSc1nnc(CNC(=O)c2ccco2)n1C,"inconclusive: 12.6 µM [inhibitor, partial curve]",–
CCOc1ccc(N2C(=O)CC(N(CCc3ccc(OC)cc3)C(=O)c3cccc(F)c3)C2=O)cc1 (centres undefined),"inconclusive: 17.8 µM [inhibitor, partial curve]",–
Cc1cc(C)cc(C(=O)N2CCC(C(N)=O)CC2)c1,–,inactive: -0.355%
Cc1cc(C)n2nc(N)c(N=Nc3ccccc3)c2n1,active: 14.1 µM,–
CCCCOc1ccc(C(=O)Nc2ccc3c(c2)CCCN3S(=O)(=O)c2ccc(C)cc2)cc1,–,inactive: 4.46%
O=C(CCl)Oc1ccc2occ(C(=O)c3cccs3)c2c1,"inconclusive: 14.1 µM [inhibitor, partial curve]",–
CCOc1ccc(NC(=O)Cn2c(=O)n(Cc3ccc(C(=O)NCc4ccc5c(c4)OCO5)cc3)c(=O)c3ccccc32)cc1,–,inactive: -3.43%
CCCCCCN(C(=O)CCCCCN1C(=O)NC(c2ccc(-c3ccccc3)cc2)C(C(=O)OCc2ccccc2)=C1C)C(C(=O)NCCCC)c1cccc(C(=O)OC)c1 (centres undefined),"inconclusive: 0.1 µM [inhibitor, full curve, poor fit]",–
COc1ccc(N2CCN(c3ccc(N)cc3C#N)CC2)cc1,"inconclusive: 8.91 µM [inhibitor, partial curve]",–

SMILES,Potency,"activity, negative = inhibition"
CCCCOc1ccc(/C=c2\sc3ncnn3c2=O)cc1,"inconclusive: 1.58 µM [inhibitor, full curve, poor fit]",–
CCOc1ccc(-c2cc(NC(=O)Nc3ccccc3C(F)(F)F)c(C(=O)OC)s2)cc1,–,inactive: -9.6%
CCCN1Cc2cccc(C(=O)Nc3ccc4c(c3)OCCO4)c2C1=O,"inconclusive: 20 µM [inhibitor, single point]",–
COc1ccc(/C=N/Nc2nc(-c3ccc(Cl)cc3)cc(C(F)(F)F)n2)cc1OC,"inconclusive: 15.8 µM [inhibitor, partial curve]",–
C=CCn1c(N)c(-c2nc3ccccc3n2C)sc1=S,"inconclusive: 6.31 µM [inhibitor, partial curve]",–
COc1cc(-c2nn3c(C4CCCCC4)nnc3s2)cc(OC)c1OC,–,inactive: -1.74%
S=C1NC[C@H](CC2CCCCC2)N1CCCCC1CCCCC1,"inconclusive: 31.6 µM [inhibitor, single point]",–
COc1ccc2[nH]c3c(=O)n(CCCCC(=O)N4CCCC4)c(=S)[nH]c3c2c1,–,inactive: -20.6%
Cc1ccc(S(=O)(=O)N(CC(=O)NCc2cccnc2)C2CCCCC2)cc1,–,inactive: 4.72%
CCOc1cccc(/C=N/NC(=O)c2cc(-c3cccn3C)n[nH]2)c1O,"inconclusive: 2.24 µM [inhibitor, full curve]",–
O=C(C1CCCCC1)N(Cc1cccnc1)c1nc2ccc(F)cc2s1,"inconclusive: 25.1 µM [inhibitor, partial curve]",–
Cc1ccc2cc3c(N)c(C(=O)N4CCOCC4)sc3nc2c1,"inconclusive: 28.2 µM [inhibitor, partial curve]",–
O=S(=O)(Nc1nc2ccccc2nc1-[n+]1cccc(N=C([O-])c2ccccc2Cl)c1)c1ccccc1,"inconclusive: 11.2 µM [inhibitor, partial curve]",–
O=C(CNC(=O)C(c1ccccc1)c1ccccc1)N/N=C/c1ccc(O)c([N+](=O)[O-])c1,"inconclusive: 15.8 µM [inhibitor, partial curve]",–
C/C=C/C=C/[C@H]1Cc2cc(O)cc(O)c2O1,"inconclusive: 22.4 µM [inhibitor, partial curve, poor fit]",–
O=C(CSc1nc2c(c(=O)n1-c1ccccc1)SCC2)N1CCN(c2ccccc2)CC1,"inconclusive: 35.5 µM [inhibitor, partial curve, poor fit]",–
O=C(CCN1C(=O)/C(=C/c2cccc(Br)c2)SC1=S)Nc1cccnc1,"inconclusive: 1.78 µM [inhibitor, full curve]",–
COc1cc(CN(C)Cc2ccccc2)cc(OC)c1O,"inconclusive: 39.8 µM [inhibitor, single point]",–
CC(C)c1ccc(/C=C(\C#N)c2nc(-c3ccc(O)cc3)cs2)cc1,active: 7.94 µM,–
Nc1ccc(C(=O)c2cccs2)cc1,–,inactive: 3.63%
N/C(=N\OC(=O)c1ccc2ccccc2c1)c1cccc([N+](=O)[O-])c1,"inconclusive: 2.24 µM [inhibitor, full curve]",–
Cc1ccc2ncnc(Oc3ncccc3[N+](=O)[O-])c2c1,"inconclusive: 28.2 µM [inhibitor, partial curve, poor fit]",–
